# Test results published in article PMC7819943, “Rice protein-binding microarrays: a tool to detect cis-acting elements near promoter regions in rice”.
# Some of the results follow.
# Target: T1, OsWOX13 (Oryza sativa, UniProt Q5QMM3 1-267)
# T1 sequence: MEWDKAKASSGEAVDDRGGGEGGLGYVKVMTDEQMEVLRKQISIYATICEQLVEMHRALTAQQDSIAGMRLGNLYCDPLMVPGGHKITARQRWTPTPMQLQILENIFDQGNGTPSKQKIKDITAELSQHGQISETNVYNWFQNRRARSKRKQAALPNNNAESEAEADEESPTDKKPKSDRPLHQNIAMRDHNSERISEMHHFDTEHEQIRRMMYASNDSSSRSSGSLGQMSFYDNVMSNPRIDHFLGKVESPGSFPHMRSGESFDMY
# Assay: protein-binding microarray (RPBM); PBS, 2% BSA, 51.3 ng/ul salmon testes DNA, 50 uM zinc acetate, 200 nM TF, 25 C, 1 h; high values mean tight binding
# Conditions: protein: recombinant; tags: N-terminal polyhistidine and DsRed monomer fusion (pET32a); label: CyDye5-dUTP incorporated in the synthesized complementary strand; 3' TTTTT single-stranded linker to array surface; dsDNA, one strand shown
# Summary of the method: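 The binding signal is fluorescence intensity per feature, in arbitrary units, read on an Axon 4000B scanner. Polyhistidine- and DsRed-tagged transcription factors (N-terminal fusions) from E. coli BL21-CodonPlus were purified on Ni–NTA and applied at 200 nM for 1 h at 25 °C to a double-stranded, BSA-blocked custom Agilent array in buffer with 50 µM zinc acetate.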
row,Sequence,binding signal
1,ATATAATGCTAACAAGAAATCACAGTATAATTTGGGGACGCGGAGTCACCTAGTGCAG,4220 fluorescence intensity (a.u.)
2,AAAGAGAACACATAATTGATTTGGAGCACCCAAATAATTTCGGAGTCACCTAGTGCAG,15200 fluorescence intensity (a.u.)
3,GTGCTAGTTGATTAATTAGGTCAAGCGTAGTTTATTTCATCGGAGTCACCTAGTGCAG,16300 fluorescence intensity (a.u.)
4,TTATATTGATGTTAATGAAACATATATATATCTATATAGACGGAGTCACCTAGTGCAG,7980 fluorescence intensity (a.u.)
5,CTAATATGTTGATCGGTTCTTAGATTGAAAAGGTGGTTCGCGGAGTCACCTAGTGCAG,8580 fluorescence intensity (a.u.)
6,CCTCTCATTTACGAATAGAATGATTATTGTGCCCTTCTGCCGGAGTCACCTAGTGCAG,4190 fluorescence intensity (a.u.)
7,AGTAGAATTACAATTTATAAATGAAAGAAATATCACAATACGGAGTCACCTAGTGCAG,3370 fluorescence intensity (a.u.)
8,ATATTTAAATTATTACTAGATAGCTATGAATGAAAGATTACGGAGTCACCTAGTGCAG,7030 fluorescence intensity (a.u.)
9,TGAATTAGCTATTAGATTAGATATAGATGAATTGTTGATACGGAGTCACCTAGTGCAG,4360 fluorescence intensity (a.u.)
10,GAGGGAGTAATTGCTAGTGGATGATGATGTGACATGCTTGCGGAGTCACCTAGTGCAG,8640 fluorescence intensity (a.u.)
11,GTCGTCTAAGTCAAATAATTGATGCCATAAAGCGGATGTTCGGAGTCACCTAGTGCAG,6170 fluorescence intensity (a.u.)
12,TATATATATATATATATATTCACAAAATGTATCGTTTAACCGGAGTCACCTAGTGCAG,6980 fluorescence intensity (a.u.)
13,TTGTGAGTAATTGCTCTTGTGCTAAGAGAATAGACTTTATCGGAGTCACCTAGTGCAG,3850 fluorescence intensity (a.u.)
14,AATTTTAATTTGGAGTGATAATAAGGTAAAGTTTAACGGGCGGAGTCACCTAGTGCAG,15000 fluorescence intensity (a.u.)
15,TTTGGTGTGATTAGATAATAATAATAATAATAATAATAGACGGAGTCACCTAGTGCAG,12700 fluorescence intensity (a.u.)
16,TCGGTATCATGTCACAATAATTAGCAACTAGAGAAAGAACCGGAGTCACCTAGTGCAG,4080 fluorescence intensity (a.u.)
17,ACATCCAATCAAGCAAAGCAGATGTGCAAAGCATCCGTGTCGGAGTCACCTAGTGCAG,24600 fluorescence intensity (a.u.)
18,AAAAGATTGAAACCACATACAAATAAATGGTTGTGTGAAACGGAGTCACCTAGTGCAG,13800 fluorescence intensity (a.u.)
19,GGGCTATTTAATTACGATCCATCTGAAACAAACATGTGTACGGAGTCACCTAGTGCAG,11600 fluorescence intensity (a.u.)
20,ATCTCTTAACTGCAACAACGGATTTGCAGGCGCGCATTGACGGAGTCACCTAGTGCAG,3580 fluorescence intensity (a.u.)
21,AAACGTGTTGCATTTGTGATTGGAGAGAGTACTGAATCACCGGAGTCACCTAGTGCAG,10200 fluorescence intensity (a.u.)

row,Sequence,binding signal
1,TGTGTTAACTATGTTAATATTAAAATATAATGGTCTAGTCCGGAGTCACCTAGTGCAG,3530 fluorescence intensity (a.u.)
2,TATCCAATTAGAGTTCACCAAGGAATGAGACAGAGAGATCCGGAGTCACCTAGTGCAG,3330 fluorescence intensity (a.u.)
3,CTCTTTCAAATTGACTGAATTTAAGTGAAATCACAATAATCGGAGTCACCTAGTGCAG,17400 fluorescence intensity (a.u.)
4,ATATATGATTTTGTTTGGGTGCTAGCCGCGCAATTGCACGCGGAGTCACCTAGTGCAG,3810 fluorescence intensity (a.u.)
5,GAAGATTATTAGTAGTTTATAAAATCTCCCTTCGCTCACCCGGAGTCACCTAGTGCAG,6340 fluorescence intensity (a.u.)
6,CACAAATTACGCTGCTTACATCGTGTTCGTGGTAGTTGACCGGAGTCACCTAGTGCAG,14200 fluorescence intensity (a.u.)
7,TATAATATTCATCAATTAGGATTCAAGTTCAGTTGCACTTCGGAGTCACCTAGTGCAG,4180 fluorescence intensity (a.u.)
8,AAATAATTTATTATTATATTTTATAACGGAGTAAGTAGTGCGGAGTCACCTAGTGCAG,45300 fluorescence intensity (a.u.)
9,TTCTAATTTCAATCAAACTTTCAATTTTGGCGTGAACTAACGGAGTCACCTAGTGCAG,38700 fluorescence intensity (a.u.)
10,GCCTTGATTAATCCCGTGCTCCGGCGAGCTAATTAACCCTCGGAGTCACCTAGTGCAG,33600 fluorescence intensity (a.u.)
11,TGACTGATAGGAGTTAGGACTTTATCCAATTTGGTATGTTCGGAGTCACCTAGTGCAG,8830 fluorescence intensity (a.u.)
12,ATTATTATTTATTTTATTATGATTTGATTCGTCATCAAATCGGAGTCACCTAGTGCAG,5780 fluorescence intensity (a.u.)
13,TACAAATATTCAGACCGCTATGATTGGTGAATTTGTGGATCGGAGTCACCTAGTGCAG,5190 fluorescence intensity (a.u.)
14,CTAATTAAATAATTAAGGACTGACCAGGTTACTGTTAAATCGGAGTCACCTAGTGCAG,32200 fluorescence intensity (a.u.)
15,ATTTAATGAAACTAATTTTATTTTGTAGATGTTGCTAATTCGGAGTCACCTAGTGCAG,7910 fluorescence intensity (a.u.)
16,CCAGATGCTGATAGGCTGAGATTAGCTGCTAAGTAAAAGCCGGAGTCACCTAGTGCAG,7280 fluorescence intensity (a.u.)
17,GACAAATTTGTACAGTACTAACGGTGGCTAACCGGACGGTCGGAGTCACCTAGTGCAG,10400 fluorescence intensity (a.u.)
18,TAGATTTATTAACTGAACAAATTTGGTGTTGTAAATATTACGGAGTCACCTAGTGCAG,16500 fluorescence intensity (a.u.)
19,TATAAATTTAGTAAATCGCACTTCTGAATATATGAATGCGCGGAGTCACCTAGTGCAG,11800 fluorescence intensity (a.u.)
20,TCATCAAATTAATAATTAAATATATTTTCATAATAAATTTCGGAGTCACCTAGTGCAG,5060 fluorescence intensity (a.u.)
21,TTGTGATTTGTGAGGATGTCTTGGTCTAGTCCTAGAAGACCGGAGTCACCTAGTGCAG,18800 fluorescence intensity (a.u.)

row,Sequence,binding signal
1,AGGTATAATTTGCCTTAACAATTATTACCACAGTATCAAGCGGAGTCACCTAGTGCAG,21300 fluorescence intensity (a.u.)
2,ATGTCCAATTGCCAATCCCCAAACCAAACAGAGGCCGTGTCGGAGTCACCTAGTGCAG,18000 fluorescence intensity (a.u.)
3,CAGAATAATCATTTGTCATCAATGTGTGCTGTGTGGTGGTCGGAGTCACCTAGTGCAG,5260 fluorescence intensity (a.u.)
4,TTATGCATTAACAACGTAACTAATTTAATTTGATTAGTTTCGGAGTCACCTAGTGCAG,24000 fluorescence intensity (a.u.)
5,ATATTATTTAAATTTTATTTAATATTAATGGTGTTCTATACGGAGTCACCTAGTGCAG,4180 fluorescence intensity (a.u.)
6,TGTAATTATAATTTATTTTATTGTGATTTGATTTATCATCCGGAGTCACCTAGTGCAG,59800 fluorescence intensity (a.u.)
7,GGACACCCTGGGCCTAATTGACACTATGCGTTAATAGCAGCGGAGTCACCTAGTGCAG,7330 fluorescence intensity (a.u.)
8,GTTTGATTTGATCGGTTCCGCCATTAGCAAACCTCGCCGACGGAGTCACCTAGTGCAG,36500 fluorescence intensity (a.u.)
9,GATTCAGGATTTGATACCATAATTGAGAGTATGCTAACCCCGGAGTCACCTAGTGCAG,6980 fluorescence intensity (a.u.)
10,GCAGATGATGGATGTCGACAACGATGACGCCAGCGGACAGCGGAGTCACCTAGTGCAG,3290 fluorescence intensity (a.u.)
11,CTGAACCAATCACAACCATCTATCATCTAATTTCTCCAACCGGAGTCACCTAGTGCAG,13700 fluorescence intensity (a.u.)
12,CGGAACTAATTAACTAAAATTAAACCCCGCTTTCTCGGTCCGGAGTCACCTAGTGCAG,41800 fluorescence intensity (a.u.)
13,TTTATTGGACATTAATTGATAATCACCATAGATAGATATACGGAGTCACCTAGTGCAG,31600 fluorescence intensity (a.u.)
14,CATGTCATTTGGCGTTAATTATACCTACCACACATGCAGCCGGAGTCACCTAGTGCAG,8910 fluorescence intensity (a.u.)
15,AAAGACGTCGCTAATTGAGAGGACCGTCCGCGTCGCTCCCCGGAGTCACCTAGTGCAG,31200 fluorescence intensity (a.u.)
16,ACGGTTAATTAATTCATTAACTGAACATCTAATTTGTCAACGGAGTCACCTAGTGCAG,49900 fluorescence intensity (a.u.)
17,TTCGAAAATTTACAAATCTAATTGCCTGCCGCCCTCAAGACGGAGTCACCTAGTGCAG,18300 fluorescence intensity (a.u.)
18,AAAGAATTTCACACTTTGATTGCAGATGTCATTTCCAGTGCGGAGTCACCTAGTGCAG,11800 fluorescence intensity (a.u.)
19,TTGTCCAGTGATTTGAATTCATGTGAGTTGATGTGCAGCACGGAGTCACCTAGTGCAG,12500 fluorescence intensity (a.u.)
20,TGCATTGTGATTAAATCTGATTCATATATACTAATACCTACGGAGTCACCTAGTGCAG,9730 fluorescence intensity (a.u.)
21,CGTGTAATCTGTACTAATTTAAATAAAATGCTAGGAGGAACGGAGTCACCTAGTGCAG,11300 fluorescence intensity (a.u.)

row,Sequence,binding signal
1,ATCAATTAATCATACTATCAAGATGAAACTAGCTAATTAACGGAGTCACCTAGTGCAG,7880 fluorescence intensity (a.u.)
2,TCTAACTGTGGATAATATCTGACAGGAAATTTGATATCAACGGAGTCACCTAGTGCAG,6210 fluorescence intensity (a.u.)
3,TTTTGATTTTCTTTCAATTCATTTTGCCCACTTCCCCTTCCGGAGTCACCTAGTGCAG,9680 fluorescence intensity (a.u.)
4,ATAACCCAATCCACTAATTATCTATATACCCTCTCCTAGCCGGAGTCACCTAGTGCAG,8130 fluorescence intensity (a.u.)
5,AATTTAAATATTAAAGTCTTAATTTTAGAGTTAATTCGACCGGAGTCACCTAGTGCAG,4300 fluorescence intensity (a.u.)
6,CTAAAATTGAAAGTTTGGTTAAAATTGAAACGATGTGACGCGGAGTCACCTAGTGCAG,25300 fluorescence intensity (a.u.)
7,CTTTAATTTTATTAATTTGCAGTCCAAATAGTAGTAAAACCGGAGTCACCTAGTGCAG,21300 fluorescence intensity (a.u.)
8,AGCTACGCTCATTAATCCTAATTACCGCTTATAATAATGTCGGAGTCACCTAGTGCAG,3260 fluorescence intensity (a.u.)
9,ATTAAATTGTCAGTTTGTATACCTCGGCTGATTTCTGGACCGGAGTCACCTAGTGCAG,33400 fluorescence intensity (a.u.)
10,GCGAAGATGATTGAAGCACTCGGCTTTGGAGTAATCTAGTCGGAGTCACCTAGTGCAG,33400 fluorescence intensity (a.u.)
11,GCAAACTATTGTGATTGGCATAACTTTCCTTGCATTCCTTCGGAGTCACCTAGTGCAG,40800 fluorescence intensity (a.u.)
12,CCCAAATTAAACTTCATACATACAAACTTTATGTATATAACGGAGTCACCTAGTGCAG,6720 fluorescence intensity (a.u.)
13,ATTTGTCATCCCTTAATTATTTTCCAAGGATAGTAGTTGGCGGAGTCACCTAGTGCAG,4640 fluorescence intensity (a.u.)
14,TACAAATAATAATGATTGTATTAACAAAGATATCTGGTGACGGAGTCACCTAGTGCAG,3790 fluorescence intensity (a.u.)
15,CCTCGTCATTAGTCACTTAATTATAATGCTTTAAAAGAGTCGGAGTCACCTAGTGCAG,13100 fluorescence intensity (a.u.)
16,GTCCATGATTAGCCATAAGTGCTACAGTAATCCACATGTGCGGAGTCACCTAGTGCAG,32100 fluorescence intensity (a.u.)
17,GCATTTGGATTGAATTGTCAATACCATAAAAGGAGATGATCGGAGTCACCTAGTGCAG,12700 fluorescence intensity (a.u.)
18,ATTTAACTGTATAAACAATTAATAACAAGAATTGTGTATACGGAGTCACCTAGTGCAG,16100 fluorescence intensity (a.u.)
19,TCGAAAGTAATTAGTACTAGATTGATTGTCAGTTCAGTCTCGGAGTCACCTAGTGCAG,53100 fluorescence intensity (a.u.)
20,AAATTTTATTTATAAATTATCTTCCCTTCACAAATATGTTCGGAGTCACCTAGTGCAG,5040 fluorescence intensity (a.u.)
21,CAATAATTTACCTTATTTAGAACAATTCGCATCGTACTTTCGGAGTCACCTAGTGCAG,9930 fluorescence intensity (a.u.)
